Assay results as given in PubChem BioAssay AID485344 (National Center for Advancing Translational Sciences (NCATS), 2010).
The campaign covered roughly 340,000 compounds. About 6,900 (2%) were called active. Rule as the data show it: active = inhibition above about 30%; inactive = below that, where a call was filed. The entries are a selection whose mix differs from that of the whole data set. Entries without a call were filed so in the source.

The molecules below were run against D(2) dopamine receptor (Homo sapiens) (UniProt P14416) (assay: HTS Assay for Allosteric Antagonists of the Human D2 Dopamine Receptor: Primary Screen for Antagonists). Conditions: HEK293 TREx D2 cells, calcium flux, dopamine EC80; at 10 µM; stronger effect = higher value.
Procedure, shortened: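 Measurement of antagonist activity uses fluorescent calcium dye in inducible HEK293 T-REx D2 cells: 10 s baseline, compound addition with 180 s read, EC80 dopamine addition with a further 180 s read.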
Also: 0% is about no effect.

Chain of UniProt P14416 (P14416 whole entry, looked up): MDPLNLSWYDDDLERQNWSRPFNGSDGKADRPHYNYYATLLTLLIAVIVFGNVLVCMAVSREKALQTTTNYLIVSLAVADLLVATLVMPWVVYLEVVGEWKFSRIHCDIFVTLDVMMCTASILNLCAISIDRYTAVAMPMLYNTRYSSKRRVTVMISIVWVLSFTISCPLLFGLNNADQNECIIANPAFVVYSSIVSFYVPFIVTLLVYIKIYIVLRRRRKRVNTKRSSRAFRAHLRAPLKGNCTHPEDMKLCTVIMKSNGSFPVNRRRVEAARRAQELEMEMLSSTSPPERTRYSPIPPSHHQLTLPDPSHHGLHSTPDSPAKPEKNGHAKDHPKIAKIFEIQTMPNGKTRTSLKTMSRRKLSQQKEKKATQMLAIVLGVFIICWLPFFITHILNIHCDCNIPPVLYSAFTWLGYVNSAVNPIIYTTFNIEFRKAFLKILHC

First: Cc1ccc(-n2c3nc(=O)n(C)c(=O)c-3cc3c(Cl)cccc32)c(C)c1
Second: COc1ccc(OC)c(-c2cc(C(=O)Nc3cccc(Cl)c3C)no2)c1
The inhibition of the first is higher: 1.86% for the first, -17.3% for the second.

Going from Cc1ccc(NS(=O)(=O)c2ccc(NC(=O)N3CCCC3)cc2)cc1C to CC1CCCN(S(=O)(=O)c2ccc(NC(=O)c3nc(SC(C)C)ncc3Cl)cc2)C1 (stereo unspecified), the inhibition rises from 7.42% to 20%.

Compared with CCCCN(Cc1ccccc1)C(=O)c1oc(=O)c2ccccc2c1-c1ccc(C)cc1, Cc1ccc(-c2nn(CCC(N)=O)c(=O)c3ccccc23)cc1 is higher in inhibition: -5% for the first, -2.22% for the second.

Going from COc1ccccc1/C=C/c1nc(C#N)c(N2CCCCCC2)o1 to Cc1ccc(C)c(S(=O)(=O)n2nc(C)c(S(=O)(=O)N3CCCCCC3)c2C)c1, the inhibition falls from -2.14% to -12.1%.

Compared with O=C(CSc1nc(-c2ccccc2)nc2c1CCCC2)c1ccc(F)cc1, Cn1nccc1C(=O)NCc1ccc2c(c1)CCN2C(=O)c1ccc(F)cc1 is lower in inhibition: 5.18% for the first, -24% for the second.

Going from Cc1ccc(S(=O)(=O)c2nc(-c3ccco3)oc2SC(C)c2ccccc2)cc1 (stereo unspecified) to CCN(Cc1ccccc1)S(=O)(=O)c1ccc(F)c(C(=O)Nc2cc(C)ccc2OC)c1, the inhibition rises from -2.47% to 14.3%.

Compared with CCC(=O)N1c2ccc(S(=O)(=O)NCc3cccc(OC)c3)cc2CC1C (stereo unspecified), CCOc1ccc(NC(=O)CCNS(=O)(=O)c2cccs2)cc1 is higher in inhibition: 4.16% for the first, 6.21% for the second.

Going from COc1cc(NC(=O)CCc2c(C)nc3nc(-c4cc(OC)cc(OC)c4)nn3c2C)cc(OC)c1 to COc1cc(-c2cc3n(C)c(C)c(CCC(=O)NC4CCCCC4)c(=O)n3n2)cc(OC)c1OC, the inhibition rises from 14.7% to 20.3%.

First: Cc1nc2ccccc2n1CC(O)COc1ccc(C(=O)O)cc1 (stereo unspecified)
Second: Cc1cccc(C(=O)NCc2nc3ccccc3n2Cc2ccccc2Cl)c1
The inhibition of the first is higher: -3.8% for the first, -3.84% for the second.

Going from Cc1ccc(C(=O)N2CCC(c3c[nH]c4ccccc34)(c3c[nH]c4ccccc34)CC2)cc1 to COc1cc(Cl)ccc1Nc1ncc(C(=O)N2CCN(c3ccccc3OC)CC2)c2ccccc12, the inhibition falls from 8.04% to -16.7%.

First: COc1cccc(CNC(=O)c2ccc(Cn3c(SCc4ccccc4)nc4cccnc43)cc2)c1
Second: COc1cccc(NC(=O)Cn2c(=O)n(Cc3ccc(C(=O)NCc4ccc(C)cc4)cc3)c(=O)c3ccccc32)c1
The inhibition of the first is higher: 7.59% for the first, -4.89% for the second.

Going from COc1ccccc1Nc1cc(C(=O)NCCCN(C)c2ccccc2)c2ccccc2n1 to COc1ccc(CCNC(=O)C2c3ccccc3C(=O)N2Cc2ccccc2)cc1OC (stereo unspecified), the inhibition falls from 4.85% to 4.15%.

Compared with Cc1cccc(NC(=O)C2CCN(S(=O)(=O)c3c(C)noc3/C=C/c3ccco3)CC2)c1, Cc1ccc(NC(=O)C2CCCN2S(=O)(=O)c2cccc3cccnc23)c(C)c1 (stereo unspecified) is higher in inhibition: 7.54% for the first, 24.7% for the second.

First: Cc1cccc(C)c1-n1ncc(C(=O)NCCN2CCN(C)CC2)c1C1CCN(C(=O)OC(C)(C)C)CC1
Second: CCC(=O)N1CCc2cc(Br)cc(S(=O)(=O)N3CCN(c4cc(C)ccc4C)CC3)c21
The inhibition of the first is lower: -9.86% for the first, 12.5% for the second.

Going from CCOc1ccc(C(=O)NCc2nc(-c3ccc(Cl)cc3)no2)cc1OCC to CCOc1ccc(CNC(=O)C2=Cc3cccc(OC)c3OC2)cc1, the inhibition rises from -10.5% to 20.1%.

First: CCOC(=O)c1cnc2ccc(OC)cc2c1Nc1cccc(C(C)=O)c1
Second: CCOC(=O)c1c(C)n(-c2ccccc2)c2ccc(OC(=O)c3c(F)cccc3F)cc12
The inhibition of the first is lower: 6.3% for the first, 13.1% for the second.

Going from COc1ccc(CNC(=O)C2CCN(C(=O)N3CCOc4ccc(Cl)cc43)CC2)cc1 to O=C(Cc1ccc(NC(=O)N2CCSc3ncccc32)cc1)NCc1cccc(Cl)c1, the inhibition falls from 17% to -15.1%.

Going from COc1ccc(NC(=O)CCCN2C(=O)CCn3nc(-c4cn(C)c5ccccc45)cc32)cc1 to CCC(=O)N1CCc2cc(Br)cc(S(=O)(=O)CCC(=O)Nc3ccc(Cl)cc3)c21, the inhibition rises from -24.3% to 2.81%.

Compared with Cc1cc(Nc2ccccc2O)nc(C)n1, Cc1cccc(C)c1NC(=O)CCC(=O)N1Cc2ccccc2Oc2ncccc21 is higher in inhibition: -10.1% for the first, -0.711% for the second.

Going from O=C(CN1C(=O)C2(SCC(=O)N2c2ccc(F)c(F)c2)c2ccccc21)Nc1cccc(Cl)c1 (stereo unspecified) to Cc1ccc2c(=O)c(C(=O)c3ccc(Cl)cc3)cn(CC(=O)Nc3ccc4c(c3)OCCO4)c2n1, the inhibition falls from 2.15% to -0.562%.

Compared with COc1c(C)cc(NS(=O)(=O)c2ccc3c(c2)OCCO3)cc1C, CCOC(=O)c1c(C)oc2ccc(N(C(C)=O)S(=O)(=O)c3c(C)cc(C)cc3C)cc12 is lower in inhibition: 17.6% for the first, -13.5% for the second.

First: COc1ccc2c(C)c(CCC(=O)NCc3ccccc3Cl)c(=O)oc2c1C
Second: CCOc1ccccc1CNC(=O)c1oc2c(c1C)-c1nn(Cc3cccc(Cl)c3)cc1CC2
The inhibition of the first is lower: -1.85% for the first, 11.4% for the second.

Going from COc1ccc(Cl)cc1C(=O)NCCS(=O)(=O)N1CCN(c2ccccc2OC)CC1 to CCN(CC)CCNC(=O)c1cn(CC)c2ccc(S(=O)(=O)N3CCc4ccccc4C3)cc2c1=O, the inhibition rises from -16% to 6.78%.

Going from CCOc1ccc(Cn2c(CNS(=O)(=O)c3ccc(C(C)(C)C)cc3)nc3cccnc32)cc1 to CCOC(=O)c1cc(-c2ccc(C)cc2)n(CCC(=O)NCCc2ccc(C)cc2)c1C, the inhibition falls from 10.7% to 4.09%.

Compared with O=C(Nc1cccc(OCc2cc(=O)n3ccccc3n2)c1)Nc1cccc(C(F)(F)F)c1, O=C(NC1CCN(Cc2ccccc2)CC1)c1ccc(Cn2c(=O)c3ccccc3n(Cc3cccc(F)c3)c2=O)cc1 is higher in inhibition: 7.11% for the first, 23.5% for the second.

Going from COCCn1c(=N)c(C(=O)NC2CCCC2)cc2c(=O)n3cc(C)ccc3nc21 to COc1ccc(OC)c(CC2C(=O)Nc3ccc(Br)cc32)c1 (stereo unspecified), the inhibition rises from 3.59% to 8%.

In the case of COc1ccc(Oc2nc3c(c(=O)n(C)c(=O)n3C)n2Cc2ccc(Cl)cc2Cl)cc1, the inhibition is reported as -6.17%.

With Cc1ccc(CSCC(=O)N2CCCC2)cc1 the inhibition was active: 32.8%.
In the case of CCCCN(CC)CCNC(=O)c1cc2c(-c3ccc(Cl)cc3)nn(C)c2s1, the inhibition is reported as active: 71.8%.
In the case of CC1CCN(CC[C@H]2CCCN2S(=O)(=O)c2cccc(O)c2)CC1, the inhibition is reported as active: 34.3%.
With O=C(CCC1CCCCC1)Nc1nccs1 the inhibition was active: 42.6%.
With Cc1cc(Br)ccc1NC(=O)CNC(=O)COc1ccccc1C the inhibition was active: 31.9%.
With CC(=O)N(C)c1nnc(-c2ccccn2)s1 the inhibition was active: 42.6%.
In the case of CCOc1ccc(NC(=O)CN(C)Cc2ccc3c(c2)OCO3)cc1S(=O)(=O)N1CCCC1, the inhibition is reported as active: 58.2%.
For O=C(COc1ccc(Br)cc1)NCC1COc2ccccc2O1 (stereo unspecified), the inhibition was active: 33.4%.
